# Source: the supplement of paper PMC3334620
# Over roughly 33,000 sequences, “E-score (-0.5 to 0.5)” has its median near -0.011; the highest 2% begin near 0.28. The list shows a part of the results.
# Biological target: T1, Gcr1 (UniProt P07261)
# T1 sequence: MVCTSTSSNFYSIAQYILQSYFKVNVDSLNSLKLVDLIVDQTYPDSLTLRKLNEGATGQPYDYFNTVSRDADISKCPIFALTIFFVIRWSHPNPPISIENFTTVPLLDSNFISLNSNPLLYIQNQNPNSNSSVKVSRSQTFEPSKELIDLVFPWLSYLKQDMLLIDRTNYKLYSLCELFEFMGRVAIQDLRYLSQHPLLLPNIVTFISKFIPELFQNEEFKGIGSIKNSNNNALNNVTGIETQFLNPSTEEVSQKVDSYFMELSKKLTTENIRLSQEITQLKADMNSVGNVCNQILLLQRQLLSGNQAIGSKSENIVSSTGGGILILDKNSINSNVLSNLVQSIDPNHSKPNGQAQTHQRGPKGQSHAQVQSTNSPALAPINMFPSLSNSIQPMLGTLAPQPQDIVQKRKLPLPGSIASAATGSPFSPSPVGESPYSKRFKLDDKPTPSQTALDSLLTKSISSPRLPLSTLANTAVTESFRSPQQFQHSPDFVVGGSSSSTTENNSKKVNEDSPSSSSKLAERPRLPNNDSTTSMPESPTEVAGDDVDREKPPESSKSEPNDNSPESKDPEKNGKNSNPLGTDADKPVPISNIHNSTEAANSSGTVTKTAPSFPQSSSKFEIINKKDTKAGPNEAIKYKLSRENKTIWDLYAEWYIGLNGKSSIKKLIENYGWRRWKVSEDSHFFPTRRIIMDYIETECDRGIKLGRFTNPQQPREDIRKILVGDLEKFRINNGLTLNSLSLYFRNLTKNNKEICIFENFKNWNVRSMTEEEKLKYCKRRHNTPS
# Test: PBM E-score (8-mer binding enrichment) (E-score (-0.5 to 0.5)); higher = stronger / more preferred TF binding; most listed sequences are background and not binding sites
# Conditions: protein concentration: 100 nM; construct: GST-full length
# How it was run: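 Universal all-10-mer Agilent arrays, fresh or stripped once, were converted to double-stranded form by primer extension. GST-tagged yeast transcription factors from PURExpress in vitro transcription/translation, full-length or DNA-binding domain only, were applied at about 100-200 nM and detected with fluorescent anti-GST. After masliner normalisation, the Universal PBM Analysis Suite scored each ungapped eight-base word together with its reverse complement by E-score.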
row,Sequence,PBM E-score
1,CAGTATGG,0.0545
2,AAACTGGA,0.224
3,CATTACAA,0.0311
4,GTAACTGA,-0.0947
5,CGAGCATA,-0.0961
6,CAAGGCTC,-0.206
7,CCCGTCCC,-0.162
8,GGATGCAA,0.183
9,CGAAAAAC,0.0498
10,GTTGTGGA,0.166
11,AAGTGCCA,-0.0488
12,AAAACTTG,0.15
13,GGTCGCCA,0.155
14,GCTTGGAC,-0.122
15,AGTAGCGC,0.21
16,GCAGCCGC,0.282
17,CTAAATTA,0.259
18,AATGCGAC,0.0447
19,GCCCAAGC,0.00848
20,CACGGGAC,-0.0178
21,CCCATGTC,-0.0978
22,CTCCCTTA,-0.0514
23,ATTAACCC,-0.149
24,ACTAGTGA,0.12
25,TAGAATCA,0.0337

row,Sequence,PBM E-score
1,CGGGCCAC,-0.0425
2,CCATCCTA,0.0473
3,GACTAGGC,-0.229
4,CTAAGCAC,-0.121
5,TCGAAAGA,0.0113
6,CCCAATGA,0.026
7,AAGGTGCT,0.22
8,AACTGACC,-0.32
9,CGATGTAA,-0.0331
10,GGATCTAC,-0.0183
11,ATACAAGA,0.138
12,CATCACGG,-0.01
13,ACGCGTAG,0.0372
14,CTCCATCC,-0.0484
15,GGTATGGA,-0.0346
16,AACAACCA,-0.0381
17,CATTTCCA,0.127
18,GCTTAAAA,0.125
19,ATACTGCC,-0.104
20,ACGGCGTC,0.243
21,CGTATAAC,0.269
22,AATTGGTG,0.071
23,GCGTCCAC,0.339
24,CGATATCC,0.062
25,AATGAGCG,-0.0664

row,Sequence,PBM E-score
1,AACCGGCT,-0.144
2,ACGCTGAT,-0.0742
3,GTAAAATA,0.176
4,ATAGCTTG,-0.214
5,GTCAGGAA,0.104
6,CCACCTTA,0.0762
7,CAGTGTCC,-0.0704
8,CAACACCC,0.0217
9,GTGTTGTA,-0.0664
10,AGGCTAAC,-0.0765
11,CGGCGGTC,-0.25
12,CCTCACTC,-0.00235
13,ATAATAAG,0.0786
14,TAGTAAGA,0.0909
15,CTCGCCCC,-0.192
16,GGAGATCA,-0.079
17,CAACTGAA,0.0567
18,ATGGGGCA,-0.0354
19,CCGCCGAA,-0.0708
20,ACCCAGGC,-0.0429
21,CTCGCAAG,-0.145
22,AGTATTAA,-0.0512
23,AGTGATGA,0.0827
24,GTGAGTTA,-0.322
25,CGCGGGAA,-0.0281

row,Sequence,PBM E-score
1,GGACATAA,-0.0172
2,AGCACCCC,0.131
3,ACATCTAT,0.232
4,CTCCAGAA,0.0346
5,AACAAGTC,-0.0273
6,AAGACATA,-0.177
7,CTCGGGGA,-0.103
8,GCACGGAA,-0.113
9,GCGCATCA,0.0737
10,CGAGTTGA,0.0527
11,AGGTAGAA,-0.0852
12,AAAAGGGC,0.0465
13,GGTAGGCA,-0.0819
14,AATTTCCA,0.119
15,CACGCAAA,-0.214
16,CAGCTTAC,-0.0902
17,ATCGTACC,0.0387
18,AAGTCCAA,0.0133
19,AGCTGCTC,0.0901
20,GGGACTAA,-0.17
21,AAAGGTGC,0.0916
22,AATACTGA,0.0152
23,AATGGCAT,0.0702
24,GGAGGACA,-0.289
25,ATGCTTCA,-0.148

row,Sequence,PBM E-score
1,GGGGGCTA,-0.171
2,AGAACTGG,0.262
3,AACGACCA,0.0113
4,CGTCGGAC,-0.138
5,AAGCGACC,0.00658
6,TACAGGGA,0.0615
7,ACTTTCTA,0.0663
8,GAAACAAC,0.0537
9,CGAGCTGC,0.151
10,TAAGACCA,-0.0414
11,CTCCACCA,-0.0877
12,GGTCTAAA,-0.202
13,ACATACGG,-0.0164
14,GGACCAGA,0.00506
15,AGCCTATA,0.146
16,GCCCACTA,0.229
17,CATAAGGG,0.109
18,CCGCTGGC,-0.21
19,GAAACACC,0.0661
20,AATTGATC,0.0134
21,AGTGAGAT,0.0539
22,AGTCCCCG,-0.106
23,CGCAAGTC,-0.135
24,AGTGTATC,-0.156
25,CCCTTGCG,-0.303

row,Sequence,PBM E-score
1,TATACCCA,0.126
2,ATGCGTAA,0.0589
3,CGGGTATA,-0.00271
4,AGAGCACT,-0.175
5,AGGGTCGG,-0.133
6,GGACCTTA,-0.0838
7,CGTACTAG,-0.0906
8,CCCTAGGC,-0.14
9,TAGTGAAA,0.0605
10,AAAAGTTC,0.0111
11,GGTACCAA,0.0964
12,ATTTTCTA,0.036
13,AAACTCTG,-0.0423
14,CGGGCACC,0.376
15,AGAGGCGG,-0.0464
16,ATGACCGA,-0.19
17,CTACCCGA,-0.0733
18,GCCGAGCC,-0.0686
19,ACACTCGA,-0.116
20,CGTGCTGC,-0.0514
21,GTTAGTTA,0.0818
22,AATAGATG,0.237
23,GTACTTTA,0.107
24,CCCAGCCG,-0.0788
25,AACTGATA,0.0463

row,Sequence,PBM E-score
1,CTGCAACC,0.0546
2,CTCTCCGC,0.0746
3,CATTTGAA,0.104
4,CACTGTCC,-0.0748
5,ACTAACAC,-0.116
6,AGTTAAGC,0.163
7,AACGCATC,0.0976
8,CTAATGAA,0.16
9,AAAGATAG,0.00998
10,AAGTCTCA,-0.0755
11,CTTGGAGA,0.101
12,CCTAATCG,0.0174
13,CTTTTGAA,0.1
14,CGCGAAAA,0.0876
15,CGGTGCTC,0.185
16,CACTCACG,-0.0374
17,ACATACTG,0.0904
18,CAGGCCCG,-0.263
19,AACGGAAA,0.0776
20,ATAATACG,0.0642
21,CGGCGCTC,0.136
22,TCGCGTAA,0.16
